# According to a collection of fitness landscapes (doi:10.1126/science.1257360):
# This is one part of the list.
# B1: PhoQ; a variant is named by its letters at X, in order, P23837 (parent)
# chain: MKKLLRLFFPLSLRVRFLLATAAVVLVLSLAYGMVALIGYSVSFDKTTFRLLRGESNLFYTLAKWENNKLHVELPENIDKQSPTMTLIYDENGQLLWAQRDVPWLMKMIQPDWLKSNGFHEIEADVNDTSLLLSGDHSIQQQLQEVREDDDDAEMTHSVAVNVYPATSRMPKLTIVVVDTIPVELKSSYMVWSWFIYVLSANLLLVIPLLWVAAWWSLRPIEALAKEVRELEEHNRELLNPATTRELTSLVRNLNRLLKSERERYDKYRTTLTDLTHSLKTPLXXLQXXLRSLRSEKMSVSDAEPVMLEQISRISQQIGYYLHRASMRGGTLLSRELHPVAPLLDNLTSALNKVYQRKGVNISLDISPEISFVGEQNDFVEVMGNVLDNACKYCLEFVEISARQTDEHLYIVVEDDGPGIPLSKREVIFDRGQRVDTLRPGQGVGLAVAREITEQYEGKIVAGESMLGGARMEVIFGRQHSAPKDE
# Variants of: B1
# Experiment: enrichment ratio after two sorts for PhoP signalling (ratio (wild type AVST 3.29)); higher = more functional
# Conditions: with PhoP (E. coli)
row,Variant,enrichment ratio
1,SHWT,≤ 0.25
2,TGMC,31.9
3,HITL,1.13
4,WFNP,≤ 0.25
5,GYRD,≤ 0.25
6,LSQV,≤ 0.25
7,IRWY,≤ 0.25
8,FETT,≤ 0.25
9,WWDL,≤ 0.25
10,RRNI,≤ 0.25
11,FKEQ,≤ 0.25
12,WYVI,≤ 0.25
13,DRLR,≤ 0.25
14,FEDG,≤ 0.25
15,IGHV,≤ 0.25
16,RVMG,≤ 0.25
17,MHEV,≤ 0.25
18,FSAK,≤ 0.25
19,VEVT,5
20,EVDS,≤ 0.25
21,LISA,≤ 0.25
22,FDQS,≤ 0.25
23,DQKP,≤ 0.25
24,WEVK,≤ 0.25

row,Variant,enrichment ratio
1,IWVY,≤ 0.25
2,IDYT,≤ 0.25
3,LPPQ,≤ 0.25
4,IYAD,≤ 0.25
5,PHGR,≤ 0.25
6,TNVF,≤ 0.25
7,PDCI,≤ 0.25
8,AKPQ,≤ 0.25
9,TDRP,≤ 0.25
10,YYER,≤ 0.25
11,FHMS,≤ 0.25
12,LSFI,6.55
13,AFSG,5.71
14,LRDD,≤ 0.25
15,ANAS,10.7
16,QRIN,≤ 0.25
17,HYPA,≤ 0.25
18,LCWI,≤ 0.25
19,ITQP,≤ 0.25
20,QANH,≤ 0.25
21,GITS,5.92
22,HDGF,≤ 0.25
23,IKNW,≤ 0.25
24,YKVL,≤ 0.25

row,Variant,enrichment ratio
1,QDIV,≤ 0.25
2,VTCL,5.34
3,NSIH,≤ 0.25
4,RVLI,0.745
5,NMLC,≤ 0.25
6,ALFR,≤ 0.25
7,WPFQ,≤ 0.25
8,WMIR,≤ 0.25
9,MDYN,≤ 0.25
10,YGPW,≤ 0.25
11,FSWS,≤ 0.25
12,DAVP,≤ 0.25
13,YTLA,4.01
14,DNFV,≤ 0.25
15,IFRP,≤ 0.25
16,LRWW,≤ 0.25
17,FVAF,≤ 0.25
18,SPCF,≤ 0.25
19,SWRM,≤ 0.25
20,TCKY,≤ 0.25
21,FMCS,≤ 0.25
22,AVGR,≤ 0.25
23,PHTE,≤ 0.25
24,IIIG,≤ 0.25

row,Variant,enrichment ratio
1,NPCE,≤ 0.25
2,AKTN,≤ 0.25
3,AQNY,0.444
4,MGRM,≤ 0.25
5,SMFQ,≤ 0.25
6,SWMM,≤ 0.25
7,DPME,≤ 0.25
8,QGQV,≤ 0.25
9,FGIW,≤ 0.25
10,TPNS,≤ 0.25
11,VGMF,≤ 0.25
12,FWTE,≤ 0.25
13,RFIN,≤ 0.25
14,RLSE,≤ 0.25
15,ADHS,≤ 0.25
16,LVSD,≤ 0.25
17,FVCS,≤ 0.25
18,WTVY,≤ 0.25
19,EEVW,≤ 0.25
20,ITEY,≤ 0.25
21,FSVD,≤ 0.25
22,TGGS,9.2
23,WMGS,≤ 0.25
24,YFRQ,0.298

row,Variant,enrichment ratio
1,GESH,8.14
2,QVQW,≤ 0.25
3,MDQY,≤ 0.25
4,FPGP,≤ 0.25
5,YKEY,≤ 0.25
6,ESVM,≤ 0.25
7,VDVW,≤ 0.25
8,QDRG,≤ 0.25
9,YECS,14.8
10,SQNK,≤ 0.25
11,ASKL,≤ 0.25
12,YLKP,≤ 0.25
13,GRVG,≤ 0.25
14,FMEG,≤ 0.25
15,KACH,≤ 0.25
16,WSMV,≤ 0.25
17,GSRM,≤ 0.25
18,YGEF,≤ 0.25
19,NANK,≤ 0.25
20,GFGI,≤ 0.25
21,QPVP,≤ 0.25
22,QMNK,≤ 0.25
23,MWGM,≤ 0.25
24,IALL,8.58

row,Variant,enrichment ratio
1,NQWM,≤ 0.25
2,WLSE,≤ 0.25
3,QNKG,≤ 0.25
4,AYIW,≤ 0.25
5,AAKC,≤ 0.25
6,KPMW,≤ 0.25
7,GDPL,≤ 0.25
8,ILYP,≤ 0.25
9,GMLV,2.73
10,DLRH,≤ 0.25
11,AKKC,≤ 0.25
12,SYFL,≤ 0.25
13,THAP,≤ 0.25
14,TMSH,3.82
15,DAGH,≤ 0.25
16,PEPH,≤ 0.25
17,VWTM,≤ 0.25
18,TVEW,≤ 0.25
19,IQGP,≤ 0.25
20,PIAP,≤ 0.25
21,NRLV,≤ 0.25
22,WGDA,≤ 0.25
23,LHKG,≤ 0.25
24,WPPL,≤ 0.25

row,Variant,enrichment ratio
1,YNMM,6.38
2,PNGR,≤ 0.25
3,YWIW,≤ 0.25
4,MQLY,9.31
5,EIAS,≤ 0.25
6,LQAV,≤ 0.25
7,VFPS,≤ 0.25
8,VAAL,0.814
9,QPHC,≤ 0.25
10,HHVT,≤ 0.25
11,YPCT,≤ 0.25
12,HTDG,≤ 0.25
13,SWMN,≤ 0.25
14,IDVW,≤ 0.25
15,DREP,≤ 0.25
16,KELR,≤ 0.25
17,DVEC,≤ 0.25
18,NLIP,≤ 0.25
19,IYDI,≤ 0.25
20,PQLN,≤ 0.25
21,HGKP,≤ 0.25
22,SQVV,8.77
23,MATQ,≤ 0.25
24,YEHN,≤ 0.25

row,Variant,enrichment ratio
1,QIHA,≤ 0.25
2,ISLD,≤ 0.25
3,YLGF,≤ 0.25
4,NHDI,≤ 0.25
5,QFMK,≤ 0.25
6,VQHL,0.767
7,VFIK,≤ 0.25
8,QACP,≤ 0.25
9,TTLR,3.8
10,HYQC,≤ 0.25
11,WSVR,≤ 0.25
12,RMGY,≤ 0.25
13,THQE,≤ 0.25
14,DDVS,≤ 0.25
15,NVYH,≤ 0.25
16,FTKI,≤ 0.25
17,EYGP,≤ 0.25
18,FDNY,≤ 0.25
19,VLPG,≤ 0.25
20,AMDM,≤ 0.25
21,WDMA,≤ 0.25
22,NSLH,≤ 0.25
23,GHQM,≤ 0.25
24,DIGC,≤ 0.25

row,Variant,enrichment ratio
1,EIAT,≤ 0.25
2,LEQW,≤ 0.25
3,RPFC,≤ 0.25
4,SVLT,5.87
5,TVEK,13.3
6,NHKT,≤ 0.25
7,HNTS,≤ 0.25
8,YFMN,≤ 0.25
9,DSWG,≤ 0.25
10,EYPT,≤ 0.25
11,PMDL,≤ 0.25
12,HLMM,≤ 0.25
13,HSMS,≤ 0.25
14,WFIY,≤ 0.25
15,EPHF,≤ 0.25
16,VMLR,≤ 0.25
17,SPKM,≤ 0.25
18,FGQE,≤ 0.25
19,SQAD,5.86
20,EDTM,≤ 0.25
21,RTVS,≤ 0.25
22,VCTN,≤ 0.25
23,PDHF,≤ 0.25
24,IERI,≤ 0.25

row,Variant,enrichment ratio
1,TNSQ,6.98
2,WMYL,≤ 0.25
3,RLSL,≤ 0.25
4,PRIT,≤ 0.25
5,LMAA,≤ 0.25
6,SEFQ,6.8
7,PTLF,≤ 0.25
8,GKNS,≤ 0.25
9,EITA,≤ 0.25
10,HEPQ,≤ 0.25
11,INSK,≤ 0.25
12,DQFD,≤ 0.25
13,HALT,≤ 0.25
14,AGWI,≤ 0.25
15,YPTS,≤ 0.25
16,WELQ,≤ 0.25
17,LCKI,≤ 0.25
18,LSMQ,0.756
19,YKVT,≤ 0.25
20,PGYW,≤ 0.25
21,LQFR,≤ 0.25
22,GEDY,≤ 0.25
23,NRHF,≤ 0.25
24,DCAT,≤ 0.25

row,Variant,enrichment ratio
1,YPDF,≤ 0.25
2,LRDW,≤ 0.25
3,QDIL,≤ 0.25
4,AGPE,≤ 0.25
5,TYAP,≤ 0.25
6,MFRH,≤ 0.25
7,PIIR,≤ 0.25
8,REQE,≤ 0.25
9,EGIC,≤ 0.25
10,WTYN,≤ 0.25
11,DWIC,≤ 0.25
12,IYTI,≤ 0.25
13,PFQV,≤ 0.25
14,NRAT,≤ 0.25
15,VPME,≤ 0.25
16,ACIN,2.16
17,NKAM,≤ 0.25
18,FGKW,≤ 0.25
19,LQGF,≤ 0.25
20,PDNH,≤ 0.25
21,MVRR,≤ 0.25
22,VTEF,≤ 0.25
23,SYWT,≤ 0.25
24,ETNL,≤ 0.25

row,Variant,enrichment ratio
1,MEYF,≤ 0.25
2,TWDC,≤ 0.25
3,FWQH,≤ 0.25
4,KKHT,≤ 0.25
5,FRTI,≤ 0.25
6,LVGI,≤ 0.25
7,MFPS,≤ 0.25
8,GVTK,≤ 0.25
9,RMCF,≤ 0.25
10,WQWG,≤ 0.25
11,WMHD,≤ 0.25
12,IHYA,≤ 0.25
13,GQEV,≤ 0.25
14,VKYR,0.327
15,TEAY,9.22
16,LTPW,≤ 0.25
17,PYPE,≤ 0.25
18,LFNH,≤ 0.25
19,NKEF,≤ 0.25
20,WDWS,≤ 0.25
21,VMMI,≤ 0.25
22,MGYN,≤ 0.25
23,IGPK,≤ 0.25
24,RKLS,≤ 0.25

row,Variant,enrichment ratio
1,DDSW,≤ 0.25
2,SIYQ,2.52
3,WHCI,≤ 0.25
4,IIRS,≤ 0.25
5,ALQF,≤ 0.25
6,DGNP,≤ 0.25
7,AGNN,≤ 0.25
8,YDHK,≤ 0.25
9,DVRR,≤ 0.25
10,PNCH,≤ 0.25
11,LNQK,≤ 0.25
12,PSGA,≤ 0.25
13,CQII,≤ 0.25
14,KRQR,≤ 0.25
15,MAFE,8.88
16,DGFA,≤ 0.25
17,TTIT,≤ 0.25
18,HERI,≤ 0.25
